# Laboratory results: article PMC12820563, “FoxP3 forms a head-to-head dimer in vivo and stabilizes its multimerization on adjacent microsatellites”
# This is one part of the list.
# Target: T1, MBP-FoxP1dN (Mus musculus, UniProt P58462 326-579)
# T1 sequence: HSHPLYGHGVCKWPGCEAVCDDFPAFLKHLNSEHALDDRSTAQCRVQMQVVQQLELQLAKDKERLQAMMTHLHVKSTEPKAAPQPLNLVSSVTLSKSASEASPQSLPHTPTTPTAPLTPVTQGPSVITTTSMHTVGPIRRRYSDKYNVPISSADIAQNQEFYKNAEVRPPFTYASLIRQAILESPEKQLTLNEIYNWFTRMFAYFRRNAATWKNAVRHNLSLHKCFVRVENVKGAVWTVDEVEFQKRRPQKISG
# Test: PD-seq (MBP pull-down with sequencing); 20 mM Tris-HCl pH 7.5, 100 mM NaCl, 1.5 mM MgCl2, 0.4 uM protein, 0.1 uM dsDNA library, 30 min, room temperature, amylose pull-down; high values mean tight binding
# Details: protein: recombinant; tags: His6-MBP; chain copies: 2; dsDNA, one strand shown
# Procedure, shortened: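 In Tris pH 7.5 buffer with NaCl and MgCl2, 0.4 µM His6-MBP-tagged mouse FoxP3 or FoxP1 fragment lacking the N-terminus, from E. coli, met 0.1 µM Klenow-filled double-stranded degenerate DNA library for 30 min at room temperature. Three washes on amylose resin followed capture of the complexes, then proteinase K release of DNA, PCR barcoding and Illumina sequencing. Binding is taken as pooled-replicate reads-per-million enrichment of pull-down relative to input.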
row,Sequence,binding signal
1,GATGATTGTTCTCCCAGCTGATGAATTTAAAATATCGAGTAAACAAATTTTCCTAATCTTTCTGTTCAAGCGCCATCTAC,1.12 RPM ratio (pull-down/input)
2,GATGATTGTTCTCCCAGCTGATGAATTGTGGGAGTCGAGTAAACAAATTTTCCTAATCTTTCTGTTCAAGCGCCATCTAC,0.924 RPM ratio (pull-down/input)
3,GATGATTGTTCTCCCAGCTGATGAATTAAGAAGTTCGAGTAAACAAATTTTCCTAATCTTTCTGTTCAAGCGCCATCTAC,0.822 RPM ratio (pull-down/input)
4,GATGATTGTTCTCCCAGCTGATGAATTACGAGGGTCGAGTAAACAAATTTTCCTAATCTTTCTGTTCAAGCGCCATCTAC,0.894 RPM ratio (pull-down/input)
5,GATGATTGTTCTCCCAGCTGATGAATTACACGTATCGAGTAAACAAATTTTCCTAATCTTTCTGTTCAAGCGCCATCTAC,1.18 RPM ratio (pull-down/input)
6,GATGATTGTTCTCCCAGCTGATGAATTCTGGTCCTCGAGTAAACAAATTTTCCTAATCTTTCTGTTCAAGCGCCATCTAC,0.724 RPM ratio (pull-down/input)
7,GATGATTGTTCTCCCAGCTGATGAATTGTCCACCTCGAGTAAACAAATTTTCCTAATCTTTCTGTTCAAGCGCCATCTAC,0.968 RPM ratio (pull-down/input)
8,GATGATTGTTCTCCCAGCTGATGAATTGTCACTGTCGAGTAAACAAATTTTCCTAATCTTTCTGTTCAAGCGCCATCTAC,1.11 RPM ratio (pull-down/input)
9,GATGATTGTTCTCCCAGCTGATGAATTACGGAGCTCGAGTAAACAAATTTTCCTAATCTTTCTGTTCAAGCGCCATCTAC,0.806 RPM ratio (pull-down/input)
10,GATGATTGTTCTCCCAGCTGATGAATTGACATTATCGAGTAAACAAATTTTCCTAATCTTTCTGTTCAAGCGCCATCTAC,1.5 RPM ratio (pull-down/input)
11,GATGATTGTTCTCCCAGCTGATGAATTTCTTCAATCGAGTAAACAAATTTTCCTAATCTTTCTGTTCAAGCGCCATCTAC,0.964 RPM ratio (pull-down/input)
12,GATGATTGTTCTCCCAGCTGATGAATTTCTCAATTCGAGTAAACAAATTTTCCTAATCTTTCTGTTCAAGCGCCATCTAC,0.994 RPM ratio (pull-down/input)
13,GATGATTGTTCTCCCAGCTGATGAATTAGCACCGTCGAGTAAACAAATTTTCCTAATCTTTCTGTTCAAGCGCCATCTAC,0.962 RPM ratio (pull-down/input)
14,GATGATTGTTCTCCCAGCTGATGAATTCGCTAGTTCGAGTAAACAAATTTTCCTAATCTTTCTGTTCAAGCGCCATCTAC,0.856 RPM ratio (pull-down/input)
15,GATGATTGTTCTCCCAGCTGATGAATTTTAGTTCTCGAGTAAACAAATTTTCCTAATCTTTCTGTTCAAGCGCCATCTAC,0.894 RPM ratio (pull-down/input)
16,GATGATTGTTCTCCCAGCTGATGAATTGAGTTGGTCGAGTAAACAAATTTTCCTAATCTTTCTGTTCAAGCGCCATCTAC,0.91 RPM ratio (pull-down/input)

row,Sequence,binding signal
1,GATGATTGTTCTCCCAGCTGATGAATTAGGTAACTCGAGTAAACAAATTTTCCTAATCTTTCTGTTCAAGCGCCATCTAC,0.918 RPM ratio (pull-down/input)
2,GATGATTGTTCTCCCAGCTGATGAATTCAATAGATCGAGTAAACAAATTTTCCTAATCTTTCTGTTCAAGCGCCATCTAC,0.887 RPM ratio (pull-down/input)
3,GATGATTGTTCTCCCAGCTGATGAATTACTGGGTTCGAGTAAACAAATTTTCCTAATCTTTCTGTTCAAGCGCCATCTAC,0.938 RPM ratio (pull-down/input)
4,GATGATTGTTCTCCCAGCTGATGAATTAAGGAGATCGAGTAAACAAATTTTCCTAATCTTTCTGTTCAAGCGCCATCTAC,0.85 RPM ratio (pull-down/input)
5,GATGATTGTTCTCCCAGCTGATGAATTCGGCAGCTCGAGTAAACAAATTTTCCTAATCTTTCTGTTCAAGCGCCATCTAC,0.875 RPM ratio (pull-down/input)
6,GATGATTGTTCTCCCAGCTGATGAATTGGAATCATCGAGTAAACAAATTTTCCTAATCTTTCTGTTCAAGCGCCATCTAC,0.933 RPM ratio (pull-down/input)
7,GATGATTGTTCTCCCAGCTGATGAATTCTGAAAGTCGAGTAAACAAATTTTCCTAATCTTTCTGTTCAAGCGCCATCTAC,0.87 RPM ratio (pull-down/input)
8,GATGATTGTTCTCCCAGCTGATGAATTGGGCCTGTCGAGTAAACAAATTTTCCTAATCTTTCTGTTCAAGCGCCATCTAC,0.806 RPM ratio (pull-down/input)
9,GATGATTGTTCTCCCAGCTGATGAATTGTTAGGTTCGAGTAAACAAATTTTCCTAATCTTTCTGTTCAAGCGCCATCTAC,1.05 RPM ratio (pull-down/input)
10,GATGATTGTTCTCCCAGCTGATGAATTAAGGGACTCGAGTAAACAAATTTTCCTAATCTTTCTGTTCAAGCGCCATCTAC,0.785 RPM ratio (pull-down/input)
11,GATGATTGTTCTCCCAGCTGATGAATTCGAGCTCTCGAGTAAACAAATTTTCCTAATCTTTCTGTTCAAGCGCCATCTAC,0.781 RPM ratio (pull-down/input)
12,GATGATTGTTCTCCCAGCTGATGAATTGTGGTGGTCGAGTAAACAAATTTTCCTAATCTTTCTGTTCAAGCGCCATCTAC,1.06 RPM ratio (pull-down/input)
13,GATGATTGTTCTCCCAGCTGATGAATTACCTCTATCGAGTAAACAAATTTTCCTAATCTTTCTGTTCAAGCGCCATCTAC,0.951 RPM ratio (pull-down/input)
14,GATGATTGTTCTCCCAGCTGATGAATTTCGAGTATCGAGTAAACAAATTTTCCTAATCTTTCTGTTCAAGCGCCATCTAC,0.998 RPM ratio (pull-down/input)
15,GATGATTGTTCTCCCAGCTGATGAATTTGAAATATCGAGTAAACAAATTTTCCTAATCTTTCTGTTCAAGCGCCATCTAC,0.972 RPM ratio (pull-down/input)
